The values below come from PubChem BioAssay AID651567 (National Center for Advancing Translational Sciences (NCATS), 2012).

Hit rate of the full screen: of about 1,200 compounds, about 10 (0.8%) were called active. Another 4% or so got no clear call; they are omitted. Calls follow the shape of the dose curve; as a rule, active = well fitted inhibition curve with a large enough effect; inconclusive = small, poorly fitted or top-dose-only effect; inactive = no such curve, though single readings can be large or run the other way. Some of the results follow.
% is scaled to controls: 0 for no effect and ±100 for the full control effect.

The nature of the assay: qHTS Assay to Find Inhibitors of Chronic Active B-Cell Receptor Signaling: Hit Validation in OCI-Ly3 Assay. The note with it: OCI-Ly3 IkB-luciferase reporter, Chroma-Glo luminescence, 4 h; series mostly up to 46.1 µM; activity change, negative = inhibition: at the top concentration. In short, it runs like this: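 Readout is dual-colour luminescence: IkB-alpha-luciferase fusion (green) against unfused luciferase (red), plus their ratio, scaled between basal cells and 10 uM MG-132. OCI-Ly3 cells, 0.5% FBS IMDM, compound with doxycycline (80ng/ml solution), 4 hrs at 37C; curves fitted and classed.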
For the compound `COc1cc2c(cc1OC)C1=CC(=O)C(=O)N1C(C)(C)C2`, the “activity change, negative = inhibition” value is inactive: -0.787%.
Still for that read-out and setting: next, `Cc1ccc(C(=O)Nc2ncc(Cc3ccc(SC(F)F)cc3)s2)cc1`: inactive: -0.644%; `COc1ccc(/C=N/NC(=O)c2[nH]c3ccc(C)cc3c2-c2ccccc2)c(C(=O)O)c1OC`: inactive: -0.812%; `CCOc1ccccc1NS(=O)(=O)c1ccc(-c2cnc(C3CC3)o2)cc1`: inactive: -4.32%.
Turning to `CN1CCN(C(c2ccccn2)c2cc(Cl)c3cccnc3c2O)CC1` (stereo unspecified), the “activity change, negative = inhibition” value is inactive: -9.54%.
Still for that read-out and setting: next, `CCOc1cc(CNc2ccc3c(c2)OCCO3)cc(Br)c1OCC`: inactive: -7.23%; `N#CC1=C(N)Oc2cc(N)ccc2C1c1cccc(Br)c1` (stereo unspecified): inactive: -16.8%; `Cc1ccc(/C=N/NC(=O)C2COc3ccccc3O2)s1` (stereo unspecified): inactive: -0.509%.
The same measure, in the same setting: next, `Cn1cccc1/C=C1\SC(=Nc2ccc(O)cc2)NC1=O`: inactive: 15.8%; `COc1c(Br)cc(Br)cc1/C=N/NC(=O)c1cccnc1`: inactive: -0.0712%; `CCOC(=O)C1=C(C)NC(C)=C(C(=O)OCC)C1/C=C/c1ccccc1`: inactive: -3.69%.
Same read-out and setting: next, `COc1ccc(N(CC(=O)NC2CCCC2)C(=O)Cn2nnc(-c3ccc(OC)c(OC)c3)n2)c(OC)c1`: inactive: 0.0475%; `COc1cc(-c2noc(C)c2-c2ccc3[nH]ccc3c2)cc(OC)c1OC`: inactive: -18.4%; `CCOc1ccc(S(=O)(=O)N(CC(=O)NN=C2CCN(C)CC2)c2ccc(C)cc2)cc1`: inactive: 0.165%.
In the case of `CCOC(=O)c1[nH]c(C)c(C(=O)N2CCc3ccccc32)c1C`, the “activity change, negative = inhibition” value was inactive: -1.95%.
Same read-out and setting: next, `CCOC(=O)c1[nH]c2c(c1C)C(=O)CC(c1ccc(F)cc1)C2` (stereo unspecified): inactive: -0.272%; `CCCCOc1ccccc1NC(=O)Cn1c(-c2nonc2N)nc2ccccc21`: inactive: 0.738%; `O=C(O)c1ccc(CSc2nnc(-c3ccco3)o2)cc1`: inactive: -0.305%.
Same read-out and setting: next, `COc1ccc(CC(=O)OCC(=O)c2c[nH]c3ccccc23)cc1`: inactive: -2.12%.
Same read-out and setting: next, `COc1cccc(-c2cc(=O)c3cc(NC(=O)c4ccc(N(C)C)cc4)ccc3[nH]2)c1`: inactive: -0.593%.
In the case of `Cc1ccc(-c2oc3ncnc(N)c3c2-c2ccc(C)cc2)cc1`, the “activity change, negative = inhibition” value is inactive: 0.36%.
Regarding `OCC1OC(n2cnc3c(NC4CCCCC4)ncnc32)C(O)C1O` (stereo unspecified), the “activity change, negative = inhibition” value was inactive: -1.25%.
Still for that read-out and setting: next, `Cc1cccc(Cn2cc(/C=C/[N+](=O)[O-])c3ccccc32)c1`: inactive: -2.08%; `CNC(=S)N/N=C/c1ccc(N2CCOCC2)s1`: inactive: -7%; `COc1ccc2c(c1)C(C)=CC(C)(C)N2S(=O)(=O)c1ccc(Br)cc1`: inactive: -3.36%.
Still for that read-out and setting: next, `COC(=O)C1CC23C=CCN4CCC5(c6ccccc6NC15C2C)C43` (stereo unspecified): inactive: -2.91%; `Fc1ccc(NC(=S)N/N=C/c2ccc(F)c(F)c2)cc1`: inactive: -0.4%; `O=C1N/C(=C/c2ccc(N3CCOCC3)o2)C(=O)N1c1ccccc1`: inactive: -1.34%.
Still for that read-out and setting: next, `COc1ccc2c(c1)c(/C=N/Nc1nc3ccccc3[nH]1)c(C)n2C`: inactive: -10%; `COc1ccc(C2=Nn3c(nnc3C3CCCCC3)SC2)cc1OC`: inactive: -1.13%; `COCCCNC(=O)C(=O)Nc1ccc2c(c1)N(S(=O)(=O)c1cccs1)CCC2`: inactive: -0.939%.
On to `CCN(CC(=O)Nc1cc(Cl)ccc1C)C(=O)C1CC1`, for which the “activity change, negative = inhibition” value is inactive: -0.432%.
On the same count and under the same terms, next, `COc1ccc(CCNCC(O)COc2cccc(Br)c2)cc1` (stereo unspecified): inactive: 0.309%; `Cc1nc(NC(=O)c2cnccn2)ccc1Br`: inactive: -3.84%; `CC(=O)[C@H]1CC[C@H]2[C@@H]3CCC4=CC(=O)CC[C@]4(C)[C@H]3CC[C@]12C`: inactive: -0.321%.
For the compound `Cc1c(CCC(=O)N[C@@H](CC(C)C)C(=O)O)c(=O)oc2cc3oc4c(c3cc12)CCCC4`, the “activity change, negative = inhibition” value is inactive: -0.513%.
On the same count and under the same terms, next, `CCCOc1ccccc1C1CC(=O)Nc2cc3c(cc21)OCCO3` (stereo unspecified): inactive: -24.4%; `C=CCc1ccc(OCCOc2ccc(/C=N/n3cnnc3)cc2OCC)c(OC)c1`: inactive: -0.818%; `CCOC(=O)c1c(C)n(C)c2ccc(OC)c(NC(=O)CN3CCN(C(=O)c4ccco4)CC3)c12`: inactive: -0.0869%.
The same measure, in the same setting: next, `CNc1nc2c(N)ncnc2n1[C@H]1O[C@@H](CO)[C@H](O)[C@@H]1O`: inactive: -0.652%.
Regarding `CCN1C(=O)C(O)(C2COC(C)(C)CC2=O)c2cc(Br)ccc21` (stereo unspecified), the “activity change, negative = inhibition” value is inactive: -6.91%.
Take `CN1CCN(Cc2cc(COCc3ccccc3)c3cccnc3c2O)CC1`: the “activity change, negative = inhibition” value is inactive: -1.23%.
Still for that read-out and setting: next, `COc1ccc(NC(=O)CSc2nc(N)c(C(=O)Nc3ccc(N(C)C)cc3)s2)cc1`: inactive: -2.29%.
Same read-out and setting: next, `Cc1ccc(CCC(=O)Nc2ncc(Cc3cc(Cl)ccc3Cl)s2)o1`: inactive: -0.804%.
Still for that read-out and setting: next, `CCOc1ncccc1C(=O)N1CCN(c2cc(Cl)ccc2C)CC1`: inactive: -5.75%; `COc1cc(/C=C/c2ccc3cccc(O)c3n2)cc(OC)c1OC`: inactive: 122%.
With `S=C(Nc1ccccn1)c1ccccn1`, the Potency entry was “inactive”.
In the case of `CCOc1ccccc1N1CSC2=C(C#N)C(c3c(OC)ccc4ccccc34)CC(=O)N2C1` (stereo unspecified), the “activity change, negative = inhibition” value is inactive: -2.24%.
`CCCNC(=O)c1ccc(-c2nn(C)c(=O)c3ccccc23)cc1`: the “activity change, negative = inhibition” value is inactive: -1.61%.
Same read-out and setting: next, `COc1ccc(-c2cnc3c(c2)CCC3(C#N)C#N)cc1`: inactive: -4.01%; `Cc1c(CCC(=O)N2CCC(C(=O)O)(c3ccccc3)CC2)c(=O)oc2cc3oc4c(c3cc12)CCCC4`: inactive: -1.21%.
